This note sets out measurements from publication PMC4336329 (PLoS ONE, 2015).

Out of some 310,000 compounds screened, about 2,200 (0.71%) showed an effect of 50% or more. Effects have a minus sign here. Some of the results follow.

The target of this assay is human ether-à-go-go-related gene (hERG) potassium channel (human, UniProt Q12809). Nature of the assay: primary screen, population patch clamp on CHO cells stably expressing hERG.
Chain of human ether-à-go-go-related gene (hERG) potassium channel (Q12809 whole entry, looked up): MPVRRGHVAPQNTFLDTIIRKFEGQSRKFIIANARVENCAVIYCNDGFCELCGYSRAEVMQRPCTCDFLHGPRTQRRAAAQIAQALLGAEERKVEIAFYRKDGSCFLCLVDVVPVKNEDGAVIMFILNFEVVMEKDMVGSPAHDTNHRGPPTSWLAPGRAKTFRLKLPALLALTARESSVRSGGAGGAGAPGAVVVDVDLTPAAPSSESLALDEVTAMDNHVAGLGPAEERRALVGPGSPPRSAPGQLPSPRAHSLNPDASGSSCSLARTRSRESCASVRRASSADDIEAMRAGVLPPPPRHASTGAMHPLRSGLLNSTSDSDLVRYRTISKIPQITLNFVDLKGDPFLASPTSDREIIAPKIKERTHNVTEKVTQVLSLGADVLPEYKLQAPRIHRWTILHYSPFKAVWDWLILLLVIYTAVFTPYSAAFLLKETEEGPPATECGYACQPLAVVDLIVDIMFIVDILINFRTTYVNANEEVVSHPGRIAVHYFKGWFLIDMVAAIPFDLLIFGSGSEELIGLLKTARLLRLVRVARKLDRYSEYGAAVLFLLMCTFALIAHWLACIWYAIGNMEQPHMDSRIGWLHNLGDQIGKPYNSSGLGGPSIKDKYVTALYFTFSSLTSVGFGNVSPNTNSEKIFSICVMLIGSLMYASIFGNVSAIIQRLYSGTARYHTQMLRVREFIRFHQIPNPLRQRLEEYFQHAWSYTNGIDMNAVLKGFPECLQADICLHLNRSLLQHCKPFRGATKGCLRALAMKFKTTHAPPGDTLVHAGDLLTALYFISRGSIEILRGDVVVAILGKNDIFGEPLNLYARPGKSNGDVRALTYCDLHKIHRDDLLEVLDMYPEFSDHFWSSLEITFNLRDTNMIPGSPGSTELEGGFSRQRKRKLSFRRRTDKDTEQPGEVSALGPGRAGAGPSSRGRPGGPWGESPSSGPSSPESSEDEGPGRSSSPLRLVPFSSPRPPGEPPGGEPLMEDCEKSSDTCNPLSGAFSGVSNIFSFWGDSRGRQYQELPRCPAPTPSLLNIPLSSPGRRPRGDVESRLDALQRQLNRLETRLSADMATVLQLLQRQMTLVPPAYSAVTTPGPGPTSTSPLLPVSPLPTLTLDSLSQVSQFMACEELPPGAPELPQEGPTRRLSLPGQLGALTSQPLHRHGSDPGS
Take `COc1ccccc1NC(=O)NNC(=O)c1ccc(-c2ccccc2)cc1`: the “hERG current change (%, negative = inhibition) at 1uM” value was determined as 4.08%.
With `CCn1c(SCC(=O)Nc2ccccc2-c2ccccc2)nnc1-c1ccoc1C` the figure was -4.96%; with `O=C(C1CCN(S(=O)(=O)c2cccs2)CC1)N1CCCC(C(F)(F)F)C1` (stereo not drawn), 3.54%; with `CCSC1=C(C#N)C(c2cccc(Br)c2)CC(=O)N1` (stereo not drawn), 16.8%.
Regarding `COc1cccc(-c2nnc(NC(=O)c3cccc(F)c3)o2)c1`, the “hERG current change (%, negative = inhibition) at 1uM” value was 14.3%.
`COc1ccc(-c2[nH]ncc2CN2CCN(c3ccc(F)cc3)CC2)cc1`: the “hERG current change (%, negative = inhibition) at 1uM” value is recorded as -4.53%.
The value for `C/C(Cn1nnc([N+](=O)[O-])n1)=N\NC(=O)c1ccc(O)cc1O` was 8.33%.
With `COc1cccc(N/N=C/c2cccc(Br)c2O)c1` the figure was 8.9%; with `O=C(c1cccc(NC2=NC3CS(=O)(=O)CC3S2)c1)N1CCN(c2ncccn2)CC1` (stereo not drawn), 13.3%; with `CCOc1cc2nc(-c3ccc(OC)c(OC)c3)nc(NCCCN3CCOCC3)c2cc1OC`, 4.87%.
With `CC12C(=O)N(c3nccs3)C(=O)C1C1C=CC2C1` (stereo not drawn) the figure was 13.1%; with `CC(C)(C)NC(=O)COC(=O)c1ccccc1Nc1ccc(SC(F)F)cc1`, -1.3%.
On to `Cc1cc(O)c(-c2cc(C(=O)Nc3cccnc3)[nH]n2)cc1C`, for which the “hERG current change (%, negative = inhibition) at 1uM” value is listed as 14.8%.
The value for `Cc1c(C(=S)Nc2ccccc2)cnn1-c1ccc([N+](=O)[O-])cc1` was 15.1%; that for `CCOc1ccccc1NC(=O)c1csc(C)c1C` was 3.97%; that for `Cl.O=C1CN=C(Nc2ccc(Cl)cc2)N1c1ccccc1` was 16%.
Regarding `O=c1c2[nH]c3ccc(F)cc3c2ncn1CCN1CCN(Cc2ccccc2)CC1`, the “hERG current change (%, negative = inhibition) at 1uM” value is -31.6%.
With `CC(=O)N/C(=C/c1ccc2c(c1)OCO2)C(=O)NCCO` the figure was 12.9%; with `CC(C)c1ccc(/C=N/NC(=O)c2ccccn2)cc1`, 0.552%; with `Cc1ccc(NC(=O)CCc2ccc(C)o2)cc1`, 7.21%.
The value for `COCCn1ccc2c(OCC(=O)NCCc3ccccc3)cccc2c1=O` was 0.744%; that for `CCCCN(C(=O)CCn1c(=O)oc2ccccc21)c1ccccc1` was 10.8%.
In the case of `CC1CCCCC12NC(=O)N(CC(=O)Nc1ccc3[nH]c(=O)[nH]c3c1)C2=O` (stereo not drawn), the “hERG current change (%, negative = inhibition) at 1uM” value stood at 16.6%.
With `CC(=O)c1sc(NC(=O)c2ccc(C)cc2)nc1C` the figure was 9.09%.
With `Cc1ccccc1OCCNCC(C)O.O=C(O)C(=O)O` (stereo not drawn) the figure was 16.9%; with `O=C(COc1ccccc1Cl)Nc1cccc(S(=O)(=O)N2CCCC2)c1`, 2.26%; with `COc1ccc(NC(=S)Nc2cccc(Cl)c2Cl)cc1OC`, 4.56%.
The value for `O=C(Nc1ncc2c(n1)-c1ccccc1CC2)c1cccs1` was 4.34%; that for `CCOc1ccc(/C=N/NC(=O)CC(=O)Nc2ccc(Cl)c(Cl)c2)cc1` was 3.55%; that for `O=c1oc2cc(OCc3ccc(C(F)(F)F)cc3)ccc2cc1-c1ccccn1` was 6.31%.
Take `Cc1cc(Nc2cccc(Cl)c2)n2ncnc2n1`: the “hERG current change (%, negative = inhibition) at 1uM” value turned out to be 3.06%.
The value for `O=C(Nc1cc([N+](=O)[O-])ccc1N1CCOCC1)c1cccs1` was 11%.
With `Nc1nonc1C(=O)N/N=C/c1ccc(Br)o1` the figure was 9.21%; with `N#Cc1cc2c(cc1NC(=O)CCn1cnnn1)OCO2`, 13%; with `CCN(Cc1nc2ccccc2c(=O)[nH]1)Cc1nc2cc(OC)c(OC)cc2c(=O)[nH]1`, 22%.
The value for `O=C(CN(Cc1ccco1)C(=O)c1cccc(F)c1)Nc1ccccc1C(F)(F)F` was 3.39%; that for `CC(=O)Nc1ccc(S(=O)(=O)Oc2ccc(C(=S)N3CCCCC3)cc2)cc1` was 6.99%.
As for `Cc1nnc(N(Cc2ccco2)C(=O)c2ccc(C#N)cc2)s1`, the “hERG current change (%, negative = inhibition) at 1uM” value is given as 0.524%.
The value for `CC(C)CC(=O)CC1(O)C(=O)Nc2ccccc21` (stereo not drawn) was 17.7%.
For `C=CCOc1ccc(/C(O)=C2/C(=O)C(=O)N(CCCN3CCOCC3)C2c2ccc(OC)cc2)cc1` (stereo not drawn), the “hERG current change (%, negative = inhibition) at 1uM” value was found to be 9.31%.
The value for `CCOc1ccccc1NC(=O)c1ccc2c(c1)C(=O)N(CC)C2=O` was 11.7%; that for `COC(=O)n1c(=S)oc2cc(Cl)ccc21` was 6.84%; that for `CCOC(=O)c1c(NC(=O)C2c3ccccc3Oc3ccccc32)sc(C(N)=O)c1C` was 7.92%.
Turning to `CCOC(=O)c1nnn(-c2nonc2NC(C)=O)c1C`, the “hERG current change (%, negative = inhibition) at 1uM” value is given as 6.57%.
The value for `Cc1nn(CCC(=O)NCCc2ccccc2Cl)c(=O)c2nn(-c3ccccc3)c(C)c12` was 15.7%.
